Reference: patent US20250387505A1 (GENEQUANTUM HEALTHCARE SUZHOU, published 2025)

T1: human FGFR3 (Sinobiological, 16044-H08H) (human, UniProt P22607 23-375)
T1 construct: Bought protein
T1 sequence (looked up): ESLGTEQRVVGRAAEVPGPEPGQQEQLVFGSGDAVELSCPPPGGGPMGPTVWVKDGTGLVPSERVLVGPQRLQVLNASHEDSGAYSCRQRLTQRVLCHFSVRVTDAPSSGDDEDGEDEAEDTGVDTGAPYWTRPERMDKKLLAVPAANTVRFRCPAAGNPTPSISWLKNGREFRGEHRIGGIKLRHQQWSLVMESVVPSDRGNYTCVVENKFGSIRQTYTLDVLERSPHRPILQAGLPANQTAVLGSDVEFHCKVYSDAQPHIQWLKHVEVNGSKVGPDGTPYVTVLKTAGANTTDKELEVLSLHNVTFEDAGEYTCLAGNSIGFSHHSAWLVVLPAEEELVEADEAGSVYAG

T2: Human FGFR3-IIIb protein (R&D systems, 1264-FR-050) (Human, UniProt P22607-2 23-377)
T2 construct: Bought protein
T2 sequence (looked up): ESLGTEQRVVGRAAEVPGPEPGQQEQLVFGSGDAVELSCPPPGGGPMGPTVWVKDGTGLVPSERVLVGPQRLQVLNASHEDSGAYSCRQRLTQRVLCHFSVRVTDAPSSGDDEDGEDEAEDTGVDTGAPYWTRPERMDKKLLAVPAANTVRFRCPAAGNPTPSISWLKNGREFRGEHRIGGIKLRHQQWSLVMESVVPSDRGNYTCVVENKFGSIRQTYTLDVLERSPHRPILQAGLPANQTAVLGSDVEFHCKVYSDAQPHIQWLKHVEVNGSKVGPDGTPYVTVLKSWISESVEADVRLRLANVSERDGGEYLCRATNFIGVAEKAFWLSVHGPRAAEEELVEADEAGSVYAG

T3: cynomolgus FGFR3 protein (Sino Biological, 90313-C02H) (cynomolgus, UniProt A0A2K5V1U5 23-376)
T3 construct: Bought protein; also called Monkey FGFR3
T3 sequence: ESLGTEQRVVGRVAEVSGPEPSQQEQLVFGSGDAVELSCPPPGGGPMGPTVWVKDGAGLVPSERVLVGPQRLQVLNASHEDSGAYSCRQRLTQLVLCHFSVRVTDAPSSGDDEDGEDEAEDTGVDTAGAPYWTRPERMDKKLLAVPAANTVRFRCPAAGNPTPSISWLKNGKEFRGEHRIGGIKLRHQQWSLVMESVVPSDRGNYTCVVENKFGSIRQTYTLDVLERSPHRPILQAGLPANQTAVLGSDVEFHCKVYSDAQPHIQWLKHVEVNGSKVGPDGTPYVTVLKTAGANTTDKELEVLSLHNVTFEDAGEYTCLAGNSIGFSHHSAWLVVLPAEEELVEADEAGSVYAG

T4: mouse FGFR3 protein (R&D systems, 710-MF-050) (mouse, UniProt Q61851 21-369, limits assumed)
T4 construct: Bought protein
T4 sequence (looked up): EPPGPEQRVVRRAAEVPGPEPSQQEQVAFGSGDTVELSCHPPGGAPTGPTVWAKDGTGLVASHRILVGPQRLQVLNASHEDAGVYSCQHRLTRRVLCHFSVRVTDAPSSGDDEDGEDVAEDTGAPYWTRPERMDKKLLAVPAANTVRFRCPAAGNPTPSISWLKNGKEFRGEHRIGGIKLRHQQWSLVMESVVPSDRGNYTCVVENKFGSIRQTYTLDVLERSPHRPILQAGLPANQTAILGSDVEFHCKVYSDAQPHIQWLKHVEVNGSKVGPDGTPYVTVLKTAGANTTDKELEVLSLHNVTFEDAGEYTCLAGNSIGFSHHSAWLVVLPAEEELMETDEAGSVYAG

B1: ADC19 (A9Q conjugated with Linker-Payload 1) (antibody, human IgG1, lambda, DAR 3.62)
heavy: EVQLLESGGGLVQPGGSLRLSCAASGFTFSSYDMSWVRQAPGKGLEWVSGIYSGDGSIYYADSVKGRFTISRDNSKNTLYLQMNSLRAEDTAVYYCAKDGPMNEESRFDYWGQGTLVTVSS[human IgG1 constant region not written out]
light: QSVLTQPPSASGTPGQRVTISCSGSSSNIGNNYVSWYQQLPGTAPKLLIYADSKRPSGVPDRFSGSKSGTSASLAISGLRSEDEADYYCASWDYSLSGYVFGGGTKLTVLGQPKAAPSVTLFPPSSEELQANKATLVCLISDFYPGAVTVAWKADSSPVKAGVETTTPSKQSNNKYAASSYLSLTPEQWKSHRSYSCQVTHEGSTVEKTVAPTECGALPETGG
modifications: C-terminal LPETGG: the peptide bond upstream of GG is cleaved by Sortase A and the chain is linked to the free N-terminal G3 of Linker-Payload 1 (two DXd payloads per linker)
notes: Antibody-drug conjugate; in the conjugate the terminal GG is replaced by the GGG of the linker
B2: anti-FGFR3 antibody A9 (antibody, human IgG1, lambda)
heavy: B1 heavy
light: QSVLTQPPSASGTPGQRVTISCSGSSSNIGNNYVSWYQQLPGTAPKLLIYADSKRPSGVPDRFSGSKSGTSASLAISGLRSEDEADYYCASWDYSLSGYVFGGGTKLTVLGQPKAAPSVTLFPPSSEELQANKATLVCLISDFYPGAVTVAWKADSSPVKAGVETTTPSKQSNNKYAASSYLSLTPEQWKSHRSYSCQVTHEGSTVEKTVAPTEC
notes: produced in Expi 293 cells
B3: ADC20 (A9Q conjugated with Linker-Payload 2) (antibody, human IgG1, lambda, DAR 3.58)
heavy: B1 heavy
light: B1 light
modifications: C-terminal LPETGG: the peptide bond upstream of GG is cleaved by Sortase A and the chain is linked to the free N-terminal G3 of Linker-Payload 2 (two payloads per linker)

Assays:
[1] = target: FGFR3 on AMB-BT-0112T cells (glioblastoma patient-derived cells, FGFR3 overexpression, FGFR3-TACC3 fusion) (human (patient-derived cells), UniProt P22607 23-758); assay: cell-based or functional assay
[2] = target: T1, human FGFR3 (Sinobiological, 16044-H08H); assay: ELISA, human FGFR3 coated on the plate
[3] = target: T2, Human FGFR3-IIIb protein (R&D systems, …); assay: SPR, Biacore 3000, FGFR3 protein amine-coupled on the chip
Method: (§1) The binding affinity (KD value) of the anti-FGFR3 antibody was measured using a Biacore 3000. Human (FGFR3-IIIb and -IIIc, R&D systems, 1264-FR-050), mouse (R&D systems, 710-MF-050) and cynomolgus FGFR3 proteins (Sino Biological, 90313-C02H) were coated with an amine coupling kit (GE Healthcare Life Sciences, BR100050, Uppsala, Sweden).

[4] = target: T3, cynomolgus FGFR3 protein (Sino …); assay: as above
Method: as §1

[5] = target: T4, mouse FGFR3 protein (R&D systems, …); assay: ELISA, coated mouse FGFR3 (1 ug/mL), anti-human Fab-HRP, OD 450 nm
Method: (§2) 1) One microgram per milliliter of each human FGFR3 (R&D systems, 1264-FR-050), cynomolgus FGFR3 (Sino Biological, 90313-C₀₂H) protein or mouse FGFR3 (R&D systems, 710-MF-050) was coated on 96-well plates at 4° C. for over-night, respectively. The plates were blocked in 3% skim milk containing anti-FGFR3-antibodies and incubated for 1 h at room temperature. After washing with PBST (0.1%), the anti-human Fab antibody conjugated horseradish peroxidase (HRP) (Thermo Scientific, 31482, Waltham, MA, USA) was added at a ratio of 1:3000. Following the wash, the plate was treated with TMB solution (Thermo Scientific, N301, Waltham, MA, USA) as an HRP substrate, and the reaction was stopped with STOP solution (Cell Signaling Technology, #7002, Danvers, MA, USA).

[6] = target: T3, cynomolgus FGFR3 protein (Sino …); assay: ELISA, coated cynomolgus FGFR3 (1 ug/mL), anti-human Fab-HRP, OD 450 nm
Method: as §2

[7] = target: FGFR3 on RT112 cells (bladder cell line, DSMZ ACC418, FGFR3 overexpression) (UniProt P22607 23-806, limits assumed); assay: cell-based or functional assay

| Binder | IC50 (nM), cytotoxicity on 3D single spheroids [1] [nM] | EC50 [2] [nM] | Kd [3] [nM] | Kd [4] [nM] | binding result [5] | EC50 (read off the curve) [6] [nM] | IC50 (nM), cytotoxicity on 3D single spheroids [7] [nM] |
| --- | --- | --- | --- | --- | --- | --- | --- |
| B1 | 10 | 0.0427 |  |  |  |  |  |
| B2 |  | 0.0477 | 0.59 | 0.755 | no binding (tested: 100 nM (log 2)) | ~0.3 |  |
| B3 | 21 |  |  |  |  |  | 10 |
